# In a collection of fitness landscapes (doi:10.1126/science.1257360):
# The list shows a part of the results.
# B1: PhoQ; a variant is named by its letters at X, in order, P23837 (parent)
# chain: MKKLLRLFFPLSLRVRFLLATAAVVLVLSLAYGMVALIGYSVSFDKTTFRLLRGESNLFYTLAKWENNKLHVELPENIDKQSPTMTLIYDENGQLLWAQRDVPWLMKMIQPDWLKSNGFHEIEADVNDTSLLLSGDHSIQQQLQEVREDDDDAEMTHSVAVNVYPATSRMPKLTIVVVDTIPVELKSSYMVWSWFIYVLSANLLLVIPLLWVAAWWSLRPIEALAKEVRELEEHNRELLNPATTRELTSLVRNLNRLLKSERERYDKYRTTLTDLTHSLKTPLXXLQXXLRSLRSEKMSVSDAEPVMLEQISRISQQIGYYLHRASMRGGTLLSRELHPVAPLLDNLTSALNKVYQRKGVNISLDISPEISFVGEQNDFVEVMGNVLDNACKYCLEFVEISARQTDEHLYIVVEDDGPGIPLSKREVIFDRGQRVDTLRPGQGVGLAVAREITEQYEGKIVAGESMLGGARMEVIFGRQHSAPKDE
# Variants of: B1
# Experiment: enrichment ratio after two sorts for PhoP signalling (ratio (wild type AVST 3.29)); higher = more functional
# Conditions: with PhoP (E. coli)
row,Variant,enrichment ratio
1,KGKF,≤ 0.25
2,MDQA,≤ 0.25
3,SLKK,≤ 0.25
4,HMLY,≤ 0.25
5,STDK,≤ 0.25
6,VLSM,0.436
7,GHHA,≤ 0.25
8,NTVM,≤ 0.25
9,PGGN,≤ 0.25
10,KAPA,≤ 0.25
11,QTPH,≤ 0.25
12,SQGM,11.1
13,GICH,5.94
14,MLDG,≤ 0.25
15,LETV,≤ 0.25
16,GQWP,≤ 0.25
17,WYHF,≤ 0.25
18,ERRG,≤ 0.25
19,HNTQ,≤ 0.25
20,PVYK,≤ 0.25
21,IEPA,≤ 0.25
22,DIKT,≤ 0.25
23,NMPQ,≤ 0.25
24,WTRM,≤ 0.25
25,IFIP,≤ 0.25
26,PKKN,≤ 0.25

row,Variant,enrichment ratio
1,EHCV,≤ 0.25
2,WKGK,≤ 0.25
3,WHRV,≤ 0.25
4,FCRM,≤ 0.25
5,QIYM,≤ 0.25
6,RVLW,≤ 0.25
7,LAGW,≤ 0.25
8,LDFK,0.45
9,LEWK,≤ 0.25
10,RHYM,≤ 0.25
11,VWHD,≤ 0.25
12,QFHK,≤ 0.25
13,RILD,≤ 0.25
14,QYQG,3.68
15,VWWD,≤ 0.25
16,GQQY,≤ 0.25
17,WMLK,≤ 0.25
18,RWAQ,≤ 0.25
19,INMP,≤ 0.25
20,VNCR,≤ 0.25
21,RNMS,≤ 0.25
22,NQQK,≤ 0.25
23,LQMI,≤ 0.25
24,NDGN,≤ 0.25
25,FAYS,≤ 0.25
26,LVGS,≤ 0.25

row,Variant,enrichment ratio
1,DNCC,≤ 0.25
2,NICW,≤ 0.25
3,LGQN,≤ 0.25
4,WLSG,≤ 0.25
5,IWFI,≤ 0.25
6,KKFY,≤ 0.25
7,FEGP,≤ 0.25
8,SWMS,≤ 0.25
9,IKGA,≤ 0.25
10,YIQI,0.444
11,FAKM,≤ 0.25
12,AHHM,≤ 0.25
13,IEPK,≤ 0.25
14,FMKW,≤ 0.25
15,KQAF,≤ 0.25
16,GTVD,≤ 0.25
17,PWLW,≤ 0.25
18,KTRA,≤ 0.25
19,IEPR,≤ 0.25
20,LAHM,2.91
21,PAVN,≤ 0.25
22,KEVM,≤ 0.25
23,NWSL,≤ 0.25
24,PSYR,≤ 0.25
25,MWPI,≤ 0.25
26,RKSR,≤ 0.25

row,Variant,enrichment ratio
1,DYVA,≤ 0.25
2,GWIK,≤ 0.25
3,FQHE,≤ 0.25
4,YSCW,≤ 0.25
5,ITLK,≤ 0.25
6,LQHC,≤ 0.25
7,MSYI,12.1
8,VVVV,≤ 0.25
9,AKYE,≤ 0.25
10,KYAY,≤ 0.25
11,QKCR,≤ 0.25
12,WPAI,≤ 0.25
13,HISH,≤ 0.25
14,WFYN,≤ 0.25
15,AAMN,≤ 0.25
16,KVYQ,≤ 0.25
17,PCEK,≤ 0.25
18,KPGY,≤ 0.25
19,WHWS,≤ 0.25
20,HFNM,≤ 0.25
21,SDSH,≤ 0.25
22,KSIN,≤ 0.25
23,KELV,≤ 0.25
24,NRWL,≤ 0.25
25,YLIW,≤ 0.25
26,YPRD,≤ 0.25

row,Variant,enrichment ratio
1,LNYA,≤ 0.25
2,PRPT,≤ 0.25
3,KMDK,≤ 0.25
4,NNFE,≤ 0.25
5,MVDR,≤ 0.25
6,PPTQ,≤ 0.25
7,GFNW,≤ 0.25
8,DELG,≤ 0.25
9,FRLL,≤ 0.25
10,IFTF,≤ 0.25
11,ACCK,12.8
12,DDIR,≤ 0.25
13,QYVL,≤ 0.25
14,LLRQ,≤ 0.25
15,TNMQ,11.1
16,RKVW,≤ 0.25
17,DWYG,≤ 0.25
18,ARFN,≤ 0.25
19,HYTG,≤ 0.25
20,TPTM,≤ 0.25
21,QPHY,≤ 0.25
22,HAEW,≤ 0.25
23,TTMF,20.9
24,MNNT,≤ 0.25
25,LLCW,≤ 0.25
26,MFQL,≤ 0.25

row,Variant,enrichment ratio
1,ILHK,≤ 0.25
2,RIPS,≤ 0.25
3,YQRD,≤ 0.25
4,VETN,≤ 0.25
5,KNCC,≤ 0.25
6,VHAH,≤ 0.25
7,FITK,≤ 0.25
8,DREI,≤ 0.25
9,EPHK,≤ 0.25
10,NLLY,≤ 0.25
11,FYNK,≤ 0.25
12,KKNQ,≤ 0.25
13,DPCI,≤ 0.25
14,YYGY,≤ 0.25
15,HELC,≤ 0.25
16,TMPM,≤ 0.25
17,IHKG,≤ 0.25
18,YMYY,≤ 0.25
19,NGCG,≤ 0.25
20,FRSL,≤ 0.25
21,DLEN,≤ 0.25
22,TQCP,≤ 0.25
23,LELF,≤ 0.25
